First the molecules themselves.
B1: LINE1-full (parent)
chain: UACGUAGGUGGUUUUCCCCUGAUAGUGCUAAGGGGGCCUGGAAGUUUGGACUGGGCAGAGCUCAACACAGCGUGGCAAAGUGGCUGUGGCUAGACUGCCUCUCUGGAUUCCUCGUCACUCAGCAGGGCAUCUCUGAGAGAAAUGCC

The results in this text go back to the RNAGym collection of RNA variant scans (doi:10.7554/elife.90254).

The source gives no read counts; variants with many changes may rest on few reads.

The variants in the data set derive from B1. As to the kind of experiment: self-cleavage, relative activity (ratio to wild type); higher = more cleavage; in vitro, sequencing; the parent is a self-cleaving ribozyme.
Turning to C123U U132C A142C, the self-cleavage came to 1.26.

For the variant C99G A140U A142G, the self-cleavage is 0.61.

U102C U115C A140G: the self-cleavage stood at 2.57.

In the case of U115A U130C U143A, the self-cleavage was determined as 2.14.

For the variant A121G A129U A142G C145G, the self-cleavage came to 1.5.

Turning to U108C A141G A142G, the self-cleavage was determined as 0.87.

For the variant U104A U112C A136G, the self-cleavage was determined as 2.04.

C99A A117G A124G: the self-cleavage amounted to 0.52.

In the case of A117G A124G A141G, the self-cleavage was found to be 0.

For A117U U132C U143C, the self-cleavage was determined as 1.87.

For the variant U109C A136U A140G, the self-cleavage amounted to 1.84.

C101A U108C G126A: the self-cleavage came out at 2.17.

For U102C U134C C146U, the self-cleavage worked out at 0.45.

As for U109C U115C A129U A140G, the self-cleavage was 0.6.

As for U112C A121G A141G, the self-cleavage is 1.87.

On to U115C A129G A136G, for which the self-cleavage is 2.94.

On to A124U A136U U143A, for which the self-cleavage was found to be 1.09.

As to U102A A117U U132C, the self-cleavage was 1.02.

For the variant U104C A121U A129C, the self-cleavage is 0.

Take C98G U109C G127A: the self-cleavage is 0.08.

Consider U104A U108C C123U, for which the self-cleavage amounted to 2.01.

Consider U112C A124C A140G A141U, for which the self-cleavage was found to be 0.5.

U115C A142G U143C: the self-cleavage was 1.79.

As to U109C U115A U119C, the self-cleavage amounted to 1.36.

C113U U115A U143C: the self-cleavage came to 1.49.

With U100C G114A A142U, the self-cleavage was 1.53.

U119A G127A U130C A138G: the self-cleavage worked out at 1.85.

Turning to U104C A129G C145U, the self-cleavage turned out to be 2.94.

Consider U109C A121G A140G, for which the self-cleavage was 0.13.

Turning to A124G A136G A140U, the self-cleavage came out at 1.03.

For the variant U102A U112C A140G, the self-cleavage worked out at 1.15.

As for U108C A138U A142G, the self-cleavage came to 1.45.

For U96C U108C A142G, the self-cleavage stood at 0.

With C103A U104A A117C, the self-cleavage was 1.64.

Regarding U96C U112C U130C, the self-cleavage turned out to be 0.

On to A124G A129G A138G, for which the self-cleavage was 0.93.

Regarding C101A U102C U104C, the self-cleavage was 0.85.

In the case of A124U A129U A140G, the self-cleavage was 1.47.

For the variant U102C U108A U109C A136G, the self-cleavage turned out to be 0.77.

Regarding U112C G114A A124G G127U, the self-cleavage came to 1.04.

A117G A124U A140G: the self-cleavage worked out at 0.

For the variant U115A A140G A141G, the self-cleavage came to 1.36.

U104A A107U A121G: the self-cleavage was 2.87.

As for A107U U108A U130C, the self-cleavage was 1.28.

For the variant U108C G125U U130C, the self-cleavage was determined as 1.96.

Regarding A107U U108C A117C, the self-cleavage came to 2.3.

On to C101U U119C A140G, for which the self-cleavage was determined as 1.89.

Take U100C C103U G135A: the self-cleavage amounted to 1.31.

For U100C U119A A142G, the self-cleavage came out at 2.18.

Take G106A A124G U132A: the self-cleavage turned out to be 1.96.

Take A107G A136G A141G: the self-cleavage is 1.34.

For U112C U115A A138G, the self-cleavage was 2.1.

U112C A138U A142G: the self-cleavage turned out to be 1.66.

On to A107G A124G A141G, for which the self-cleavage is 1.19.

Take U100A U102C A141G: the self-cleavage amounted to 1.33.

With A121U U134A A140G, the self-cleavage amounted to 0.3.

A124G U130C A138G: the self-cleavage came out at 2.43.

With U108C U134A A136G, the self-cleavage was determined as 1.56.

As to U112A A124U A138G, the self-cleavage was 1.57.

For A107U A136G A140G, the self-cleavage came out at 1.79.

Consider C101U A107G A124G, for which the self-cleavage is 1.62.

As for C120A A136U A142G, the self-cleavage came to 1.48.

Take A117U G127C A138U: the self-cleavage amounted to 1.46.

Consider U100C U104A C116U, for which the self-cleavage worked out at 1.67.

Take U102C G122U A141G: the self-cleavage is 1.05.

U100C G105U A129C: the self-cleavage is 2.49.

C99A U134C U143C: the self-cleavage was 0.26.

Regarding A124U A136G A140G, the self-cleavage is 1.17.

In the case of A107U A136G C145U, the self-cleavage was 1.27.

Turning to U119C C123U C131A, the self-cleavage was found to be 0.85.

Consider U109C A140G A142G, for which the self-cleavage came out at 0.97.

Consider G97A A124G C133U, for which the self-cleavage stood at 0.04.

A107G G139U A141G: the self-cleavage was determined as 1.8.

On to C99U U130C U134C, for which the self-cleavage came out at 0.63.

For U96C U130A U143C, the self-cleavage turned out to be 0.16.

In the case of U112C G127C U134A, the self-cleavage was determined as 1.97.

For U104C C118U U134C, the self-cleavage was 1.65.

With A117G C133U A141G, the self-cleavage worked out at 0.42.

In the case of U102C U132A A136G, the self-cleavage is 1.35.

Take U119C U132C G144A: the self-cleavage amounted to 1.49.

In the case of A117U A121G U134A, the self-cleavage stood at 1.93.

As to U100C G106A U134C, the self-cleavage turned out to be 2.25.

As for C98A G126A A138G, the self-cleavage was 0.26.

Consider A117G A136G A142G, for which the self-cleavage is 0.77.

As for U96C U119C A142G, the self-cleavage was 1.84.

Turning to U100A U115C A117G, the self-cleavage was determined as 1.31.

In the case of U96G A124G A140G, the self-cleavage was 0.71.

Take A107G U119C U130C: the self-cleavage came to 1.47.

Consider U104C A124U G127U A140G, for which the self-cleavage worked out at 1.58.

As to A107G U132C A140U, the self-cleavage was 1.06.

Take U115A A142G U143A: the self-cleavage was determined as 1.79.

Consider C110A U134C A138G, for which the self-cleavage amounted to 1.08.

On to U102C A138G A142G, for which the self-cleavage was found to be 2.65.

As for A107U U134C A140U, the self-cleavage was 2.61.

Turning to U104A A138G G139A, the self-cleavage is 1.25.

In the case of U109C A141G U143A, the self-cleavage is 1.01.

As for U100C U108C G137A, the self-cleavage turned out to be 1.98.

For U102A C111A A142G, the self-cleavage came out at 1.32.

For U102A U130A U143C, the self-cleavage was 1.47.

On to U100A U115C U132C, for which the self-cleavage came out at 0.

Take U102C G122A A138G: the self-cleavage is 1.06.

G114A G125A A140G: the self-cleavage turned out to be 1.33.

Regarding U102C A129G U132C, the self-cleavage is 0.92.

As to U108C U109C A138G, the self-cleavage is 0.94.

Regarding C99U U108C A117G A138U, the self-cleavage worked out at 1.21.

For the variant U102A U108A U115A, the self-cleavage turned out to be 1.63.

Consider U100C A107G C146U, for which the self-cleavage worked out at 2.4.

On to U102C U112C C123U U132C, for which the self-cleavage came to 1.36.

As for C99U U115C U119A, the self-cleavage came to 0.96.

As for U104A A107U A129U, the self-cleavage was found to be 1.88.

For the variant A124G A129C U134C, the self-cleavage worked out at 0.5.

For the variant U112C U119C C145G, the self-cleavage amounted to 1.75.

For the variant U108C A124G A141G, the self-cleavage came out at 2.83.

For U102C A117U A138G, the self-cleavage is 1.21.

With U102C U104C G114A, the self-cleavage came to 0.63.

Regarding U104G G105C G125C, the self-cleavage worked out at 1.53.

As for G97A U102C A140U U143C, the self-cleavage came to 0.11.

On to A117G A124G A136G, for which the self-cleavage came to 2.53.

Regarding U108C G114A A142G, the self-cleavage was found to be 1.58.

For the variant U104A C120U U134C, the self-cleavage was 0.66.

In the case of U108C A138C A141G, the self-cleavage amounted to 2.07.

Turning to U102C A117G A142G, the self-cleavage is 0.66.

Take U100A A129G A141G: the self-cleavage turned out to be 1.19.

Regarding A124G A142G U143C, the self-cleavage was determined as 1.11.

With U108C U119A A140G, the self-cleavage is 1.38.

Regarding U100A A138G U143C, the self-cleavage worked out at 0.96.

Take C110U G114C U143A: the self-cleavage was 1.86.

As to U119A U134C U143C, the self-cleavage turned out to be 1.2.

For the variant U115C C123A U134C, the self-cleavage was 2.31.

As to U96G A138G U143A, the self-cleavage was 0.08.

Take U104A A129U U132A U143A: the self-cleavage turned out to be 0.98.

On to U102C C113U A138G A142G, for which the self-cleavage was 1.66.

As for U102A U104A A138U, the self-cleavage was 1.37.

For U115C U119C A124U, the self-cleavage was 1.93.

U100A A124G U130A: the self-cleavage is 0.92.

Take U100C U112A A138G A140G: the self-cleavage turned out to be 2.3.

As for U109C U115A A138U, the self-cleavage stood at 1.44.

For the variant U115A A121G A140G C146U, the self-cleavage was found to be 0.9.

For the variant G105A A124U A138G, the self-cleavage is 1.96.

With U102C U115A A117U U132A A136G U143C, the self-cleavage worked out at 2.4.

Consider U102C U108C U119C, for which the self-cleavage is 1.97.

On to C99U C118U U134C, for which the self-cleavage is 0.38.

For C113U C116A G127C A142G, the self-cleavage stood at 1.13.

As for A117U U130C A138U, the self-cleavage was found to be 1.62.

With U102C A117U U143G, the self-cleavage worked out at 2.2.

Regarding U115A A129U A140G, the self-cleavage was determined as 1.96.

Take U102C U108C U134A A141G: the self-cleavage is 1.07.

Regarding U108A C113U A121U, the self-cleavage turned out to be 1.15.

As for U100A A107G U132C, the self-cleavage amounted to 1.62.

C98U G126A A136G: the self-cleavage was 0.62.

On to G114A U115A A129G A136G, for which the self-cleavage came to 2.53.

Regarding U104A U108C U130C A141G, the self-cleavage is 1.71.

For the variant U104A U119C A124G A141G, the self-cleavage amounted to 0.

Regarding A117U A129G A141G, the self-cleavage worked out at 1.02.

Consider C98U A136G A140G, for which the self-cleavage stood at 0.67.

For the variant U119C A121G C133U, the self-cleavage is 3.

On to U102A A141G A142U, for which the self-cleavage came to 0.88.

In the case of U119A A138U A142G, the self-cleavage was 1.53.

As to A124G C133U U134C, the self-cleavage amounted to 1.72.

With U119A A124G U132C, the self-cleavage was 1.46.

As to U100C U134C A136G, the self-cleavage worked out at 1.62.

On to U102C A107G U132C, for which the self-cleavage was determined as 1.13.

As to U104C U109C A138G, the self-cleavage was determined as 0.71.

Take A107G A121U A129G: the self-cleavage was 0.84.

Take U102C A117U A124G: the self-cleavage was determined as 1.26.

On to U119C A129U U134A, for which the self-cleavage is 2.27.

On to G105A U109C A129G, for which the self-cleavage stood at 1.09.
